Laboratory results reported in PMC8440562, “MAD2L2 dimerization and TRIP13 control shieldin activity in DNA repair” (Nature Communications, 2021).
These are yes or no findings as the source states them, for the method shown. For some of these results: Binding seen in cells or lysates may run through a third protein. Some entries that bind do so weakly or less than the wild type. For some of these results: Sequences can lack the tags named with a protein.

The chains behind the UniProt entries cited, without tags or fusion partners. Where a name states a change or a piece, a line headed by the entry shows the natural chain unless it says otherwise. A line that says so, or that is headed by a name, gives the form on record, which may keep a tag or linker.
UniProt Q9UI95: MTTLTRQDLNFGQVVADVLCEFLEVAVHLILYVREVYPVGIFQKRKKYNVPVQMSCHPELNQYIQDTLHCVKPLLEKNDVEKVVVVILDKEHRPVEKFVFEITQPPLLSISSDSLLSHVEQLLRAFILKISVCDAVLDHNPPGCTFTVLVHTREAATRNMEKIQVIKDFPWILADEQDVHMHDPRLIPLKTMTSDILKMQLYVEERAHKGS
MBP-tagged MAD2L2 (1xMut) (Q9UI95, form named): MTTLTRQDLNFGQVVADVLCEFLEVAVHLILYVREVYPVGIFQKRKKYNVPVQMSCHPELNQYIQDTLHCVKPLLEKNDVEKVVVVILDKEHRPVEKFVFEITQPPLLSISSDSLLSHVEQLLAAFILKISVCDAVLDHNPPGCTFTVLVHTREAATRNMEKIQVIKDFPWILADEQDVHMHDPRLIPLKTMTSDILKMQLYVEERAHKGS

B1: V5-SHLD2 (protein, UniProt Q86V20 1-835)
chain: MSGGSQVHIFWGAPIAPLKITVSEDTASLMSVADPWKKIQLLYSQHSLYLKDEKQHKNLENYKVPESIGSPDLSGHFLANCMNRHVHVKDDFVRSVSETQNIESQKIHSSRLSDITSSNMQICGFKSTVPHFTEEEKYQKLLSENKIRDEQPKHQPDICGKNFNTNLFQLGHKCAAVLDLVCSTEKINIGPEVVQRECVPTEYHEIQNQCLGLFSSNAVDKSRSEAAVRKVSDLKISTDTEFLSIITSSQVAFLAQKKDKRRSPVNKGNVNMETEPKASYGEIRIPEENSIQLDGFTEAYESGQNQAYSLELFSPVCPKTENSRIHINSDKGLEEHTGSQELFSSEDELPPNEIRIELCSSGILCSQLNTFHKSAIKRSCTSEDKVGQSEALSRVLQVAKKMKLISNGGDSAVEMDRRNVSEFKSIKKTSLIKNCDSKSQKYNCLVMVLSPCHVKEINIKFGPNSGSKVPLATVTVIDQSETKKKVFLWRTAAFWAFTVFLGDIILLTDVVIHEDQWIGETVLQSTFSSQLLNLGSYSSIQPEEYSSVVSEVVLQDLLAYVSSKHSYLRDLPPRQPQRVNSIDFVELEHLQPDVLVHAVLRVVDFTILTEAVYSYRGQKQKKVMLTVEQAQDQHYALVLWGPGAAWYPQLQRKKGVVLIKAQISELAFPITASQKIALNAHSSLKSIFSSLPNIVYTGCAKCGLELETDENRIYKQCFSCLPFTMKKIYYRPALMTAIDGRHDVCIRVESKLIEKILLNISADCLNRVIVPSSEITYGMVVADLFHSLLAVSAEPCVLKIQSLFVLDENSYPLQQDFSLLDFYPDIVKHGANARL
B2: GFP-SHLD3 (protein, UniProt Q6ZNX1 1-250)
chain: MTTEVILHYRPCESDPTQLPKIAEKAIQDFPTRPLSRFIPWFPYDGSKLPLRPKRSPPVISEEAAEDVKQYLTISEHDAKSHSYDCTVDLLEFQPSLKKQHLTWSHTLKEQTNSGNLGKQSEKGKQHKRRSWSISLPSNNCTKNVSPLSKKLQDSLKALNLHSLYRARWTIEHTICNSQTLEDIWTKLNQIIRHNELPSCNATIQRHLGQIWVFCDIMYCEYVGSLLKGRLALTGKINLFVHKYGVIFSM
B3: SHLD3 (full-length, recombinant) (protein, UniProt Q6ZNX1 1-250)
chain: B2 chain
B4: SHLD2^1-95 (domain or fragment, UniProt Q86V20 1-95)
chain: MSGGSQVHIFWGAPIAPLKITVSEDTASLMSVADPWKKIQLLYSQHSLYLKDEKQHKNLENYKVPESIGSPDLSGHFLANCMNRHVHVKDDFVRS
B5: His6-EGFP-TRIP13^E253Q (enzyme, human, UniProt Q15645 1-432, looked up)
chain: MDEAVGDLKQALPCVAESPTVHVEVHQRGSSTAKKEDINLSVRKLLNRHNIVFGDYTWTEFDEPFLTRNVQSVSIIDTELKVKDSQPIDLSACTVALHIFQLNEDGPSSENLEEETENIIAANHWVLPAAEFHGLWDSLVYDVEVKSHLLDYVMTTLLFSDKNVNSNLITWNRVVLLHGPPGTGKTSLCKALAQKLTIRLSSRYRYGQLIEINSHSLFSKWFSESGKLVTKMFQKIQDLIDDKDALVFVLIDQVESLTAARNACRAGTEPSDAIRVVNAVLTQIDQIKRHSNVVILTTSNITEKIDVAFVDRADIKQYIGPPSAAAIFKIYLSCLEELMKCQIIYPRQQLLTLRELEMIGFIENNVSKLSLLLNDISRKSEGLSGRVLRKLPFLAHALYVQAPTVTIEGFLQALSLAVDKQFEERKKLAAYI
notes: TRIP13, human, with E253Q; printed mass of GFP-TRIP13 75.5 kDa; source: insect cells (Hi5, baculovirus, biGBac), purified

Legend:
[1] = target: Flag-MAD2L2 (full-length wild-type MAD2L2, shRNA-resistant, single Flag-tag) (UniProt Q9UI95); assay: co-IP; 293T co-transfected with Flag-MAD2L2 (WT or mutant), V5-SHLD2 and GFP-SHLD3; anti-Flag M2 magnetic beads overnight at 4 C; lysis in 50 mM Tris-HCl pH 7.4, 150 mM NaCl, 1 mM EDTA, 1% Triton X-100; immunoblot
Flag-MAD2L2^R124A = Flag-MAD2L2^R124A (UniProt Q9UI95); assay: as above
[2] = target: Flag-MAD2L2^K44A/R124A/A135D (UniProt Q9UI95); assay: as above
[3] = target: MBP-tagged MAD2L2 (1xMut) (human) (UniProt Q9UI95); assay: pull-down; purified proteins mixed at 6 uM in 25 mM Tris pH 8, 0.3 M NaCl, 10% glycerol, 10 mM MgCl2, 0.5 mM TCEP, 0.01% Triton-X, 3 mM ATP; glutathione agarose or amylose beads; MAD2L2 in complex with full-length SHLD3; Coomassie SDS-PAGE; both purified
[4] = target: SHLD3-MAD2L2 complex (WT) (human) (UniProt Q9UI95+Q6ZNX1); assay: SEC; purified SHLD3-SHLD2^1-95-MAD2L2 complex (WT or 1xMut); Superdex-200; fractions on Coomassie-stained SDS-PAGE; both purified
[5] = target: SHLD3-MAD2L2 complex (1xMut) (human) (UniProt Q9UI95+Q6ZNX1); assay: as above
[6] = target: MBP-tagged MAD2L2 in complex with SHLD3 (human) (UniProt Q9UI95+Q6ZNX1); assay: pull-down; purified proteins mixed at 6 uM in 25 mM Tris pH 8, 0.3 M NaCl, 10% glycerol, 10 mM MgCl2, 0.5 mM TCEP, 0.01% Triton-X, 3 mM ATP; glutathione agarose or amylose beads; MAD2L2 in complex with full-length SHLD3; Coomassie SDS-PAGE; both purified

Binder	binding [1]	binding (Flag-MAD2L2^R124A)	binding [2]	other results
B1	binds	binds weakly	no binding	
B2	binds	binds	binds	
B3				binding [3]: binds
B4				binding [4]: binds; binding [5]: binds
B5				binding [6]: no binding (tested: 6 uM)
